Test results: the supplement of paper PMC11417369
± gives the standard deviation of the averaged measurements. The list shows a part of the results.

What follows are sequences tested on PfAP2-LT AP2 domain (GST-tagged) (assay: gcPBM binding intensity (ln(normalized median fluorescence intensity)); higher = stronger DNA binding).
How it was run: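 For binding intensity, the highest Masliner-normalised natural-log median intensity across replicate spots of either probe orientation was taken. Protein bound to the array was stained with Alexa488 anti-GST antibody and scanned at 488 nm. The protein, GST-tagged P. falciparum DNA-binding domains from E. coli at about 25 μg on average, had been applied for 1 h to an Agilent 4 × 180k array of primer-extended double-stranded 36-bp intergenic genomic probes and negative controls.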

Sequence | gcPBM binding intensity (ln)
TATTTTGTTCTTTCCACACACAAATACATATATTGT [CACACA_site4071] | 9.37 ± 0.5
TAATACATACACACATGTACATACAGAAATAAATAA [XGTACX_site3245] | 9.24 ± 0.38
AAAAAGAAGAAGAAATGTACGTAACTATATATTTAT [XGTACX_site4362] | 8.87 ± 0.47
TTTTACATAAATTATAAATATATAAAATAAAAAAAA [CACACA_negctrl_site1499] | 8.24 ± 0.55
TTAATGGAAAAATAGGCACACACACCGATATACATA [CACACA_site8356] | 9.64 ± 0.26
TGGCTTTCCCTGCCGGTGCATTAACATTTTTTACAT [GTGCAC_site9914] | 8.97 ± 0.42
TTAATATTCCAGCTTTGTACATATATATATTATAAA [XGTACX_site7954] | 8.62 ± 0.38
CATATATATATTTTTTGTACATATATTTTTACATAT [XGTACX_site8419] | 9.04 ± 0.5
TTTATACAAATATGTACACACTAAATATATATTATG [CACACA_site4413] | 8.8 ± 0.41
AAAAAAAAAAAAAACACACAGAAATATATATATATT [CACACA_site832] | 8.9 ± 0.5
AAAGGAAAAGTTGACTGTACATAAGTAAAAAATAAT [XGTACX_site788] | 9.15 ± 0.72
ATTCATTCCATACTTTAACACACAAATATATTTAAT [CACACA_site7930] | 8.83 ± 0.47
ATGTTATTAATAATTGCACACATTTTTTTTTTTTTT [CACACA_site3920] | 9.1 ± 0.38
TCATATTTATATAAATGTACTTAATTGGTTTCTTTA [XGTACX_site7848] | 8.59 ± 0.49
AGATTGTAAGTAAACACACACACATATATATGTATA [CACACA_site675] | 9.62 ± 0.35
TTTTTGTAACCGATTCTGCACTGAGAAGCACATATA | 8.62 ± 0.46
GAAATTACTTTATAAACACACATTTATTTTATTTTA [CACACA_site7007] | 8.63 ± 0.47
TTATTTACAAAACAAATCAAAATATCCAAAAGAATA [CACACA_negctrl_site1789] | 8.33 ± 0.44
ATATTATACGCATATGTGCGCATACATTTTTTTGCA [GTGCAC_site9540] | 8.99 ± 0.44
TACACATACAGACATACACACATACCCATATACTCA [CACACA_site5037] | 9.6 ± 0.41
GGCATATATATATGCACACATACATATATACATGTG [CACACA_site3859] | 9.7 ± 0.3
AAAAAAATAAAATATATATATATATATATATATATA [GTGCAC_negctrl_site706] | 9.54 ± 0.4
TATATATGGATATATACACACAACGGTTATAAATAT [CACACA_site6655] | 9.02 ± 0.44

Sequence | gcPBM binding intensity (ln)
TTTTTTAAAGTTTAAAGTACATATAAAAATATATAA [XGTACX_site5267] | 8.18 ± 0.57
AATATAGGAATATGCACACATATATACATACATACA [CACACA_site1521] | 9.3 ± 0.4
TATATATATATATTATGTACATATATAAATTAACAT [XGTACX_site3368] | 8.8 ± 0.33
CTTAAAATATATTTAGTGCATATACTAATATATTAT | 8.54 ± 0.39
TATGAAAAAAAAAAAAAAAAAAAAAAAAAAAAAAAA [XGTACX_negctrl_site587] | 8.02 ± 0.15
ATATATATATATTTATGTACATATTATTTATTCTTT [XGTACX_site6567] | 9.05 ± 0.52
TAATGGTATAAAAAATGTACATGTTTTTTTACAATT [XGTACX_site4285] | 8.65 ± 0.41
ATTATTTGATTAAAGGTGCAAGGATAATAATAAAAC | 8.82 ± 0.42
TATATTTACTTATATGCACACATAAATGTGAATTAT [CACACA_site9258] | 8.89 ± 0.36
TATTATATAATATACTGTACAATATCCATTATTTAC [XGTACX_site7091] | 8.81 ± 0.41
ACATATAATAAAATAGTGCATTGTTAGTTTTATATA | 8.68 ± 0.44
AATTAATAAAAAAGGTGTACAGTAAATGCAATAATC [XGTACX_site7956] | 9.18 ± 0.39
GTTAATCACCATGTGGTGCATATAAGGGCATATTAT [GTGCAC_site9748] | 8.85 ± 0.47
TCTTTTATATATAATAATTATATATAACATTCAAAC [GTGCAC_negctrl_site112] | 8.53 ± 0.45
CCTTATACGATATTATGTACGCATATGTGCATTTTT [XGTACX_site1570] | 8.95 ± 0.4
ATAAATTCATACATTTGTACACAAAAAAAAAAAAAA [XGTACX_site2435] | 8.63 ± 0.42
CTCACATATATATATAGTACAATTTTTTTTTTTTTT [XGTACX_site5999] | 8.59 ± 0.33
ATGTAGAATTGTAAATGTACATGAAACACATATTCA [XGTACX_site3436] | 9.06 ± 0.38
TTTTTATGTGTATATTATTACATTTACATCTTTAAC [CACACA_negctrl_site1676] | 8.88 ± 0.48
ACAAGACAACAAGGAAGTACTCATAAATATATTTGG [XGTACX_site1423] | 9.02 ± 0.49
AATATATATATGTGTACACATCCAAAATAGGCATAC [CACACA_site5705] | 9.21 ± 0.38
TGTAAATATAAAAGATAATGATAAAAGGGACATTTT [CACACA_negctrl_site661] | 8.69 ± 0.4
ATATATATATAAATATGTACATATTTATATATGAAT [XGTACX_site3220] | 8.77 ± 0.42

Sequence | gcPBM binding intensity (ln)
ATCTATATTATAATAACACACATATATTATAGTATA [CACACA_site6330] | 8.79 ± 0.41
TATATATATATATTATGTACATATAAATATATTTTT [XGTACX_site1509] | 8.73 ± 0.31
AAGAAAAATACTACGTGTACCAAACTTCCTACCAAC [XGTACX_site1426] | 9.02 ± 0.39
TTATTTATTCTATGTGCATGTTATTTTTTTTTTTCG [TGCATGCA_site262] | 8.87 ± 0.38
AAAAATAAGATATATACACACATATAAATATAAATA [CACACA_site7396] | 9.11 ± 0.58
TTTGTATTAAAAAAAAAAAAAAAAAAAATGAATAAA [TGCATGCA_negctrl_site292] | 8.15 ± 0.45
ATAACGGAAAAAAAAAGTACATGATATAAACATGAA [XGTACX_site8428] | 8.8 ± 0.54
TTTTTTTTTTTTTTTTTTTTTTTTCATTTGATATTA [TGCATGCA_negctrl_site112] | 8.37 ± 0.2
CTTTAAACCCTGAACACACACAAATACACCCAAAAA [CACACA_site4297] | 9.52 ± 0.36
TATATATATATATGTGGTACATAAAATTATTATTTT [XGTACX_site4554] | 9.29 ± 0.085
AGAGAGAAAGTTATAACATGCAACAATTTTTAGAAG [TGCATGCA_site1] | 8.79 ± 0.52
ATAAAATTATCTACATGTACTCATATATATTTGTTT [XGTACX_site5911] | 9.32 ± 0.35
TTATAATATATATGTAGTACTGTTTTTTTCTATTTT [XGTACX_site7749] | 8.79 ± 0.54
TATTATTTTAAAAATGCATGTTCATATGAAATAATA [TGCATGCA_site969] | 8.6 ± 0.48
TGTACAAATATGTACACACACACATATATATATATA [CACACA_site584] | 9.88 ± 0.085
TTCGTTCTTTTATGCACACTCAACATATAAATTAAA [CACACA_site1209] | 8.79 ± 0.42
AAGGAGCCTATGAACACACACATGTACATATATTAA [CACACA_site4084] | 9.27 ± 0.38
ATACTATTATATATATGTACATATATATGATGCTCT [XGTACX_site1771] | 9.05 ± 0.36
CATATACATACACATACACACATACACCCATACACA [CACACA_site8514] | 9.68 ± 0.29
TGTAAAAAATTTAACACACACATATATAAATATGTA [CACACA_site7261] | 9 ± 0.33
AATATATATTTATGTACACACTCCAATACAGATACA [CACACA_site5481] | 8.96 ± 0.3
ATATGACGTAGTGGTGTACACACATGGTACCTTTAT [CACACA_site8436] | 9.38 ± 0.35
AGTAAATAATTATATACATGCATTTACTAATATTTA [TGCATGCA_site952] | 8.77 ± 0.41

Sequence | gcPBM binding intensity (ln)
CTTTATCTTCTCACGAAGATTGAATAAGGTATTCTT [XGTACX_negctrl_site307] | 8.5 ± 0.49
CAGACAATAAAGAAGTGTACACATATATCAATAAAA [XGTACX_site4515] | 9.26 ± 0.66
AAAAAAAAATACCTACGTACATATATATATTATATA [XGTACX_site3983] | 8.75 ± 0.47
AAAAAAAAAAAACACACACACACACCCACAAAATAT [CACACA_site1447] | 10.31 ± 0.028
TTAATGCACTTTATTACACACACTAGTTCATTACCT [CACACA_site2294] | 9.47 ± 0.45
AAAAAATAAAAAAAAACACACACATACAAGCATATA [CACACA_site8451] | 9.49 ± 0.26
AGAGAGAGAAATACAAGTACATGTGAAACCAATCTA [XGTACX_site2767] | 9.04 ± 0.46
AAAAAAAAAAAAATTGCACACAAAAAAAAAAAAAAA [CACACA_site8644] | 8.95 ± 0.4
TTCAACATAATATGCACACAAAAATTATGGAACGAA [CACACA_site2111] | 9.22 ± 0.43
AAAAAAAACAAATACACACGCACACCGAAAAAAAAA [CACACA_site803] | 9.6 ± 0.39
ATATAATAGTATATATGTACATATATTTAAATACTA [XGTACX_site1135] | 8.82 ± 0.4
TATATTATAATTTGAAGTACATTTTAAATTAACTAA [XGTACX_site1013] | 8.17 ± 0.48
ATATATGTATATATTTGTACATATAATATTTTTTAA [XGTACX_site6345] | 8.61 ± 0.4
ATTTGTAATTTATTCAAACACACAATTTGGACCTTT [CACACA_site1062] | 8.88 ± 0.43
TAATTAAGCATAAATATAATTTTATATTTTATTTCC [XGTACX_negctrl_site321] | 8.3 ± 0.37
TGCAGTCTGGAGAAAAGTACATAGTATCTGGTAGCT [XGTACX_site2547] | 8.82 ± 0.49
TAACATAGCAATGTTTCACACACAAGAAAAAATACA [CACACA_site8747] | 9.21 ± 0.35
TTTGTGTGTGCGTGTGCATGTTGTTTTTTTCTATAA [TGCATGCA_site17] | 9.725 ± 0.078
AATATAATAACTTATTGTACGAAATTATATCACCTT [XGTACX_site7883] | 8.74 ± 0.43
TATTCACATACAGAAACACACACATATATATAAATT [CACACA_site9232] | 9.31 ± 0.32
